The campaign covered roughly 50,000 compounds. About 800 (1.6%) showed an effect of 50% or more. The list shows a part of the results.
target: Bcl-2-like protein 10 (Homo sapiens) (UniProt Q9HD36); assay: Phenotype converters, Bcl-B/TR3 peptide binding displacement, primary biochemical FP (AID 1240); conditions: GST-Bcl-B / FITC-TR3 peptide fluorescence polarization; stronger effect = higher value; compound at 3.75 mg/L;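 also: 0% = Bcl-B with tracer peptide and DMSO and 100% = tracer peptide lacking Bcl-B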
Chain of UniProt Q9HD36 (Q9HD36 whole entry, looked up): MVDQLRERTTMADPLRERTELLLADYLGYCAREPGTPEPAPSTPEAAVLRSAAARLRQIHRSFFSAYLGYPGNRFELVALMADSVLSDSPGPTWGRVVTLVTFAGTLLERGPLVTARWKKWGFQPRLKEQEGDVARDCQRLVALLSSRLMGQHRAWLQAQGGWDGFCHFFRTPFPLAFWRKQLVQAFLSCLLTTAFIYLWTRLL

Question: For `CCOC(=O)CNC1=C([N+](=O)[O-])C(=O)CC(C)(C)C1`, which displacement is on record?
Answer: The displacement was -9.2%.

Question: Which displacement does the source give for `COc1cc(C2C3=C(CC(C)(C)CC3=O)OC3=C2C(=O)CC(C)(C)C3)cc(I)c1O` here?
Answer: The displacement was 9.5%.

Question: With `CCn1c2ccccc2c2cc(CN3CCN(S(=O)(=O)c4ccccc4)CC3)ccc21` as the compound, how does the displacement read?
Answer: The displacement was -4.6%.

Question: How did the displacement turn out when `CC(Oc1cccc(Cl)c1)C(=O)Nc1ccccc1C(=O)N1CCN(Cc2ccccc2)CC1` (stereo not given) was run?
Answer: Its displacement is 16%.

Question: For `Cc1cc(NS(=O)(=O)c2ccccc2[N+](=O)[O-])no1`, which displacement is on record?
Answer: Its displacement is 0.5%.

Question: With `C1CCN(c2nc3nonc3nc2N2CCCCC2)CC1` as the compound, how does the displacement read?
Answer: Its displacement is 5.8%.

Question: Which displacement does the source give for `COc1ccccc1NC(=O)C1=C(C)NC(=S)NC1c1cccc([N+](=O)[O-])c1` (stereo not given) here?
Answer: Its displacement is -13.4%.

Question: For `Cc1ccc(-c2c(C#N)c(N)nc3c2CCCCC3)s1`, which displacement is on record?
Answer: Its displacement is -0.7%.

Question: With `COC(=O)CN1C(=O)/C(=C\c2ccc(Br)cc2)SC1=S` as the compound, how does the displacement read?
Answer: The displacement was 10.1%.

Question: With `CCN(CC)CCOc1nnc(-c2ccc(OC)cc2)c2ccccc12` as the compound, how does the displacement read?
Answer: Its displacement is 3.5%.

Question: With `Cc1ccc2nc(NC(=O)CCc3ccccc3)sc2c1` as the compound, how does the displacement read?
Answer: Its displacement is -4.9%.

Question: `Cc1ccc(-c2cc(C(F)(F)F)n3ncc(C(=O)O)c3n2)cc1` was tested. Which displacement did it give?
Answer: Its displacement is -1%.

Question: How did the displacement turn out when `Cc1ccc(-n2[nH]c(C)c(C=NCc3ccncc3)c2=O)cc1` was run?
Answer: The displacement was -13.8%.

Question: Which displacement does the source give for `CC(C)COc1cc(=O)[nH]c(SCC(C)C)n1` here?
Answer: The displacement was -4.9%.

Question: For `CCC1=NN(C(=O)c2ccccc2O)C(O)(c2ccncc2)C1` (stereo not given), which displacement is on record?
Answer: The displacement was -10.8%.

Question: How did the displacement turn out when `CC1=CC(C)C2(COC(c3ccc[n+](C)c3)OC2)C(C)C1` (stereo not given) was run?
Answer: Its displacement is -14.6%.

Question: Which displacement does the source give for `OCC#CC(O)(c1ccc(F)cc1)c1ccc(F)cc1` here?
Answer: The displacement was 2.4%.

Question: Which displacement does the source give for `Clc1cccc(OCCCCn2ccnc2)c1` here?
Answer: The displacement was 4.2%.

Question: Which displacement does the source give for `CCCCS(=O)CC(O)COc1ccccc1` (stereo not given) here?
Answer: The displacement was -10.7%.

Question: Which displacement does the source give for `CCN(CC)CCN1C(=O)c2ccccc2NC1c1ccccc1F` (stereo not given) here?
Answer: Its displacement is 10.1%.

Question: With `O=C(COc1ccc2ccccc2c1)Nc1ccc(S(=O)(=O)N2CCCCCC2)cc1` as the compound, how does the displacement read?
Answer: The displacement was -0.6%.

Question: Which displacement does the source give for `Cc1ccc(C(=O)N/C(=C/c2ccc(Br)cc2)C(=O)NN)cc1` here?
Answer: The displacement was -31.6%.

Question: Which displacement does the source give for `COc1ccc(N2C(=O)CC(N3CCN(C(c4ccc(F)cc4)c4ccc(F)cc4)CC3)C2=O)cc1` (stereo not given) here?
Answer: Its displacement is -9.2%.

Question: With `CS(=O)(=O)N1CCN(c2ccc([N+](=O)[O-])cc2Cl)CC1` as the compound, how does the displacement read?
Answer: The displacement was 1.2%.

Question: `COc1ccc(COC(=O)C2=C(C)NC(=O)NC2c2ccc(O)cc2)cc1` (stereo not given) was tested. Which displacement did it give?
Answer: The displacement was -3.4%.

Question: `O=C(/C=C/c1ccccc1)Nc1nnc(C2CCCC2)s1` was tested. Which displacement did it give?
Answer: The displacement was 13.5%.

Question: `COC(=O)C1=C(C)N(C)C(C)=C(C(=O)OC)C1c1cccc(C)c1` was tested. Which displacement did it give?
Answer: The displacement was -7.2%.

Question: Which displacement does the source give for `CCCC1CCc2nc3ccccc3c(C(=O)O)c2C1` (stereo not given) here?
Answer: Its displacement is -10.4%.

Question: How did the displacement turn out when `CSc1ccc(/C=C(\NC(=O)c2ccc(C)cc2)C(=O)Nc2cccc(C)c2)cc1` was run?
Answer: The displacement was -2.7%.

Question: How did the displacement turn out when `COc1cccc(/C=N/NC(=O)CCNc2n[nH]c(=O)[nH]c2=O)c1OC` was run?
Answer: The displacement was -9.5%.

Question: Which displacement does the source give for `CC(=O)Nc1ccc(NC(=O)c2c(Cl)cccc2Cl)cc1` here?
Answer: Its displacement is -2.3%.

Question: For `CCOC(=O)CSc1nc2c(c(=O)n1C1CCOC(C)(C)C1)C1(CCCCC1)Cc1ccccc1-2` (stereo not given), which displacement is on record?
Answer: The displacement was -1.1%.

Question: `CC(C)CCNC(=O)C(=O)NCc1ccc(Cl)cc1` was tested. Which displacement did it give?
Answer: Its displacement is 1.4%.

Question: For `Cc1ccc(C2C(C#N)=C(N)Oc3c2ccc2cccnc32)cc1` (stereo not given), which displacement is on record?
Answer: Its displacement is -16.1%.

Question: `COc1ccc(OC)c(/C=C2\SC(=N)N(c3ccc(F)cc3)C2=O)c1` was tested. Which displacement did it give?
Answer: Its displacement is -4.7%.

Question: With `O=C(Cc1n[nH]c(=O)c2ccccc12)NCCCN1CCCCCC1` as the compound, how does the displacement read?
Answer: The displacement was -1.7%.

Question: How did the displacement turn out when `COc1ccccc1NC(=O)/C(=C\c1ccc(Br)cc1)NC(=O)c1ccccc1OC` was run?
Answer: Its displacement is -4%.

Question: How did the displacement turn out when `Cc1sc(NC(=O)c2sc3ccccc3c2Cl)c(C#N)c1C` was run?
Answer: Its displacement is 1%.

Question: How did the displacement turn out when `COc1ccc(OC)c(NC(=S)NC(NC(=O)Cc2cccc3ccccc23)C(Cl)(Cl)Cl)c1` (stereo not given) was run?
Answer: The displacement was 12.7%.

Question: With `CC(C)Oc1ccc(/C=N/N=C/c2ccc(OC(C)C)cc2)cc1` as the compound, how does the displacement read?
Answer: The displacement was 3.1%.

Question: With `COc1ccc(C(=O)Nc2ccc3c4c(cccc24)CC3)cc1Br` as the compound, how does the displacement read?
Answer: The displacement was -4.5%.

Question: Which displacement does the source give for `COc1ccccc1N1CCN(/N=C\c2ccncc2)CC1` here?
Answer: Its displacement is -10.3%.

Question: `Oc1c(Br)cc(Cl)cc1C=Nc1cccc2nsnc12` was tested. Which displacement did it give?
Answer: Its displacement is 10.5%.

Question: With `Cc1cc(OCC(=O)NNC(=O)c2ccccc2C)ccc1Br` as the compound, how does the displacement read?
Answer: The displacement was -12.6%.

Question: How did the displacement turn out when `O=[N+]([O-])c1ccc(NCCCNS(=O)(=O)c2ccccc2)c(Cl)c1` was run?
Answer: Its displacement is -6.2%.

Question: Which displacement does the source give for `COc1ccccc1CNC1C2CC3CC(C2)CC1C3` (stereo not given) here?
Answer: Its displacement is 4.8%.

Question: How did the displacement turn out when `CC1=C(C(=O)OC(C)C)C(c2ccc(Br)cc2)C2=C(CCCC2=O)N1` (stereo not given) was run?
Answer: Its displacement is 6.3%.

Question: For `Cc1ccc(-c2ccccc2)n1-c1cccc(C(=O)O)c1`, which displacement is on record?
Answer: The displacement was 1.2%.

Question: With `COc1ccccc1NC(=O)CN(c1cccc([N+](=O)[O-])c1)S(=O)(=O)c1ccccc1` as the compound, how does the displacement read?
Answer: Its displacement is 8.5%.

Question: With `CN(c1ccc(C(=O)Nc2ccc3ccccc3c2)cc1)S(=O)(=O)c1ccccc1` as the compound, how does the displacement read?
Answer: Its displacement is 9.8%.

Question: With `Cc1cccc(NC(=O)C(=O)NCCCOC(C)C)c1` as the compound, how does the displacement read?
Answer: The displacement was 13.1%.

Question: Which displacement does the source give for `COc1ccc2c(c1OC)C(=O)N(c1cccc(C)c1)C2=O` here?
Answer: The displacement was -14.8%.

Question: Which displacement does the source give for `CC(=O)NC1=NC(=O)/C(=C\c2ccc(N(C)C)c(Br)c2)S1` here?
Answer: The displacement was -39.2%.

Question: With `CC(Oc1ccccc1)C(=O)N1CCN(c2ccccc2)CC1` (stereo not given) as the compound, how does the displacement read?
Answer: The displacement was 21.2%.

Question: `O=C(CSc1nnc(-c2ccccc2)c(-c2ccccc2)n1)N1CCCCC1` was tested. Which displacement did it give?
Answer: The displacement was -4.4%.

Question: `CCOc1ccc(-n2c(-c3ccccc3)nc3c(cnn3-c3ccccc3)c2=O)cc1` was tested. Which displacement did it give?
Answer: Its displacement is 8.6%.

Question: With `COc1ccc(/C=C/C(=O)Nc2cccc([N+](=O)[O-])c2)cc1Br` as the compound, how does the displacement read?
Answer: Its displacement is 6.1%.

Question: How did the displacement turn out when `COc1cc(C(=O)Nc2ccc(Cl)cn2)cc(OC)c1OC` was run?
Answer: The displacement was 10.7%.

Question: Which displacement does the source give for `COc1cccc(N(CC(=O)Nc2ccccc2Br)S(=O)(=O)c2ccccc2)c1` here?
Answer: Its displacement is 4.6%.

Question: `CC(C)(C)C1CCc2c(sc3nc(SCC(N)=O)nc(N)c23)C1` (stereo not given) was tested. Which displacement did it give?
Answer: Its displacement is 3.5%.

Question: Which displacement does the source give for `COc1ccc(OC)c(NC(=S)NC(NC(=O)c2ccc(Cl)cc2Cl)C(Cl)(Cl)Cl)c1` (stereo not given) here?
Answer: Its displacement is -4.5%.

Question: `COc1ccc(C(N)=O)cc1NC(=O)c1cccnc1` was tested. Which displacement did it give?
Answer: The displacement was 14.4%.

Question: How did the displacement turn out when `Clc1ccc(-n2ncnc2-c2ccc(Cl)cc2Cl)cc1` was run?
Answer: Its displacement is 8.9%.

Question: How did the displacement turn out when `CC(C)(C)c1ccc2c(c1)C(=O)NC2=O` was run?
Answer: Its displacement is -4.8%.

Question: With `CCOC(=O)c1cc(CC)sc1NC(=O)c1cc([N+](=O)[O-])ccc1N1CCN(CC)CC1` as the compound, how does the displacement read?
Answer: The displacement was -2.3%.

Question: Which displacement does the source give for `CC12c3ccccc3C(C)(c3ccccc31)C1C(=O)N(c3cccc(C(=O)O)c3)C(=O)C12` (stereo not given) here?
Answer: The displacement was 12.4%.

Question: Which displacement does the source give for `COCCOC(=O)c1ccc(NC(=O)COc2cccc(C)c2C)cc1` here?
Answer: Its displacement is 1.9%.

Question: With `Cc1ccnc(NS(=O)(=O)c2ccc(N3C(=O)c4ccc(C(=O)O)cc4C3=O)cc2)n1` as the compound, how does the displacement read?
Answer: Its displacement is 1.4%.

Question: `CC(=O)Nc1c2ccc([N+](=O)[O-])cc2n2c(C)nc3ccc(Cl)cc3c12` was tested. Which displacement did it give?
Answer: The displacement was 1.9%.

Question: How did the displacement turn out when `C/C(=N\NS(=O)(=O)c1ccc(C)cc1)c1cccs1` was run?
Answer: Its displacement is 4.9%.

Source: PubChem BioAssay AID1240 (Sanford-Burnham Center for Chemical Genomics, 2008)
